From paper PMC10320511 come the findings set out here.

Holding throughout (test): co-IP; V5H6-tagged FRQ (wild type or mutant) pulled down with V5 agarose from Neurospora lysate (cultures in the light, 25 °C); 50 mM Hepes pH 7.4, 137 mM NaCl, 10% glycerol, 0.4% NP-40; 4 °C, 2 h; Western blot with FRQ, FRH, WC-1 and WC-2 antibodies
On the technique in general: Immunoblotting shows a protein as a band on a membrane.

The target of test [1] is T1, FRQ 1–558, V5H6-tagged (Neurospora crassa) (UniProt P19970).
T1 sequence: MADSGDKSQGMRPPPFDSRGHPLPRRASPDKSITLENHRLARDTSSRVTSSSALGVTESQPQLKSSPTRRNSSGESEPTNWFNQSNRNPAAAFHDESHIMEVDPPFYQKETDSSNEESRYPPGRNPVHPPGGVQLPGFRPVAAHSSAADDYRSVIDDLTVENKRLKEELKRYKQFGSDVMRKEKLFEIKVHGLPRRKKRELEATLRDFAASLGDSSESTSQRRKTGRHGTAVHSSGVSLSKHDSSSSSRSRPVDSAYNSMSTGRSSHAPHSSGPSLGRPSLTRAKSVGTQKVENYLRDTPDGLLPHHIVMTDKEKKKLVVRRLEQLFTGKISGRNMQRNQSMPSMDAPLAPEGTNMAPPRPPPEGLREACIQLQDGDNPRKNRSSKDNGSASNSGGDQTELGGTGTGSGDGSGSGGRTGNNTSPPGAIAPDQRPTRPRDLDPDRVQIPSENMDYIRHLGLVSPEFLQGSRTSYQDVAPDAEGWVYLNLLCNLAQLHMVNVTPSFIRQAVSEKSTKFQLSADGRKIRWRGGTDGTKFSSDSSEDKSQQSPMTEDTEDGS

The target in test [2] is T2, FRQ D660E, V5H6-tagged (Neurospora crassa) (UniProt P19970).
T2 sequence: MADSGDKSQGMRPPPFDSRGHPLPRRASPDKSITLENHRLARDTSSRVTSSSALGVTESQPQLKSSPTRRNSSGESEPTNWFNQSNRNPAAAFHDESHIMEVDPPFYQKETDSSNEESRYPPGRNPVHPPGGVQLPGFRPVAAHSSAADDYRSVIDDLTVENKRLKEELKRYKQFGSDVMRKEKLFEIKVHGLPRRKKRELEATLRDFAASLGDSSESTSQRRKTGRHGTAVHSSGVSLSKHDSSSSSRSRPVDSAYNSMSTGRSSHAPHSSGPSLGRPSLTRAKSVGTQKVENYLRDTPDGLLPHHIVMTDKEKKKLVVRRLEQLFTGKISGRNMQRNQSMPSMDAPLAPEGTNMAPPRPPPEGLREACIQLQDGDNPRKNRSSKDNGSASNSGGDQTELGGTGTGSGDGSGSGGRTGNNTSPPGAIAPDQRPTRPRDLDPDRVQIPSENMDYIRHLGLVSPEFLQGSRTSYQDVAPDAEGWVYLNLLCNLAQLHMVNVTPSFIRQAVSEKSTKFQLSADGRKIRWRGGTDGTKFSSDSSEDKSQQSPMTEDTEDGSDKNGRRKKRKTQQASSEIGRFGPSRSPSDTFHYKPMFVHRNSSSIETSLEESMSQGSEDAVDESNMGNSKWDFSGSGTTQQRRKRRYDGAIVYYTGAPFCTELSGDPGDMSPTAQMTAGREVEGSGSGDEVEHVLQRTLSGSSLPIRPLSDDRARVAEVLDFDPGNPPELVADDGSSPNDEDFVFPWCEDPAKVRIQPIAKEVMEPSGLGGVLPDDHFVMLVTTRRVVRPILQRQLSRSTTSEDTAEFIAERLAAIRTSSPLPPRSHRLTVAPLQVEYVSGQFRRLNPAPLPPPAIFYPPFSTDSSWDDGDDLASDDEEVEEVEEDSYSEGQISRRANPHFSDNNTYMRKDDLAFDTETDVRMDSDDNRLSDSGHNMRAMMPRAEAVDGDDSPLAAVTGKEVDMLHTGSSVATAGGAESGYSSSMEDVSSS

Test [3] concerns the target T3, FRQ E200A, E202A, D207A, V5H6-tagged (Neurospora crassa) (UniProt P19970).
T3 sequence: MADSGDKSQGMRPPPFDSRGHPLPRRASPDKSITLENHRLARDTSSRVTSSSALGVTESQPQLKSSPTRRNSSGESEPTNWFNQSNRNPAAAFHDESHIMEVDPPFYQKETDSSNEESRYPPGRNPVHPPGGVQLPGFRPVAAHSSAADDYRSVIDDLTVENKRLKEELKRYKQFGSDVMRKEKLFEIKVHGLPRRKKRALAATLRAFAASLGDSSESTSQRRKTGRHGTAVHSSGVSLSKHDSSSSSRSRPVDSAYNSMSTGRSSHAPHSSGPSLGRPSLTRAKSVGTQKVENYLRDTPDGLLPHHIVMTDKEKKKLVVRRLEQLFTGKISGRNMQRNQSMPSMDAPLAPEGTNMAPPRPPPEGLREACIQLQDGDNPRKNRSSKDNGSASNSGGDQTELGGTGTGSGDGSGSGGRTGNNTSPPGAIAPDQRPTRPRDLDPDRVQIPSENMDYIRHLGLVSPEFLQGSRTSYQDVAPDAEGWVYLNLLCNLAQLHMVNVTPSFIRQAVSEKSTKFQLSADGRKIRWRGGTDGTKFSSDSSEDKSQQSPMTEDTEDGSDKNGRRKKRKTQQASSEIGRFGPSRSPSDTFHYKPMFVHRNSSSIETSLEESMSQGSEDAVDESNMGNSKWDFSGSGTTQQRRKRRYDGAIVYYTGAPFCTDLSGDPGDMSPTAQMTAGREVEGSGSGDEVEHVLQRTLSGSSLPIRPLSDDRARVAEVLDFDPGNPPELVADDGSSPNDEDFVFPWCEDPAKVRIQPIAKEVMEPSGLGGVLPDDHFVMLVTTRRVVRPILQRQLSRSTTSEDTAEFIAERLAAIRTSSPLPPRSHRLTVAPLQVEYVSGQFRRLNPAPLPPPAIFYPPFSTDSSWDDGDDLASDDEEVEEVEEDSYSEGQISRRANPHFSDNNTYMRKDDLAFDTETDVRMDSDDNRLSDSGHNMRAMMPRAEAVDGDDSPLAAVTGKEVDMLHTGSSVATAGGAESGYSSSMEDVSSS

Results are given in words; binding and its absence hold for the method and conditions named. In cells and extracts the contact can be indirect. Some binding calls cover weakened binding; strength is not graded here. Sequences can lack the tags named with a protein.

B1: White Collar-2 (WC-2) (protein, UniProt P78714 1-530)
chain: MSHGQPPPGSSMYGFGAMGMGSGMGSGMGSGMGTGMGTGMGTGMSASQMTSDPQDMMSLLDTSVFPGFDGMSMSLDVGDSMSNPFTPVSVPPPLPAGNAGPSHVGVCGGHGAPDQLFSPDDLIATSMSSAGPMIATPTTTTSGPSGGPSSGGGSTLTEFTKRRNWPAKVVEELQDWEHILDANGRIKHVSPSVEPLTGYKPPEIIDLFLRDLIHPDDVGVFTAELNEAIATGSQLRLFYRFRKKDGNWTIFETVGHAHIAAAKFAPNPQNQSPFCQAVFMMARPYPTKNAGLLDSFLEHKIENERLKRRIAELRREEQEEQEESHRTWRMSQEGRSDVTPSDDTATQMGMTPFYIPMNAQADVMMPPPSQPASSLNIALTRENLEGIAGSRPDSIREKMLRYEGNHADTIEMLTGLKYQEGERSHGITTGNASPTLIKGDAGIAIPLDRDPRTGEKKKKIKVAEEYVCTDCGTLDSPEWRKGPSGPKTLCNACGLRWAKKEKKKNANNNNNGGGIGGHNDIHTPMGDHMG
B1: the binding result in test [1] and in test [2] was “no binding” each time.

B2: FRQ-interacting RNA helicase (FRH) (protein, UniProt Q1K502 1-1106)
chain: MDDLFEVFEEQPRAQKKRKASPDVEMADGAAAAAPVANAAAAVTHPQAQAAPAPQKDNIDNNDNNNNNTTTSAVQPTIPNGDAAAAADDVQSPQSPHGLGDNKRRKKTDEAEPIMTDAFQTAESREVTGAQGFAPTEGESIVLSHNIQHQVALPPDLDYEYIPLSEHKPPAEPARTYSFKLDPFQALSVASIEREESVLVSAHTSAGKTVVAEYAIAQCLKKNQRVIYTSPIKALSNQKYRDFQAEFGDVGLMTGDVTINPTASCLVMTTEILRSMLYRGSEIMREVAWVVFDEIHYMRDKIRGVVWEETIILLPDKVRYVFLSATIPNAFQFAEWIAKIHRQACHVVYTDFRPTPLQNYFFPAGGKGILLIVDEKGNFKENNFNQAMAMIEEKKGTDSNDWSAKQKGKGKNKKTNKGGEAADEKADIAKIIKMILKKNFQPVIVFNFSKRECEQMALASSSMKFNAPDEENMVNKVFENALASLSEDDKNLPQISNILPLLRKGIGVHHSGLLPILKETIEILFQEGLIKVLFATETFSIGLNMPARTVVFTQVTKWDGQQRRPLTSSEYIQMAGRAGRRGLDDRGIVIMMVDDKLEPETARAIVVGNQDKLNSAFHLGYNMVLNLLRIEAISPEYMLERCFFQFQNAASVPQLERELISLQQERDAIIIPDESIVKDYYGVRQQLEEYNKDMVFVIQHPQNCLGFFQEGRLIHIKSPSGVDYGWGVLIKHIQRQTPKNGQPPYPEQESYVLDVLLKVSGDFNPKTRGEGPMPEGIMPAGKDSKNARWEVVPCLLNCLRALGQLRVFLPKRLESADEKDGVGKAVDEISRRFPDGIPILDPMENMGINDDSFKKLLRKIEVLESRLVANPLHNSPLLVELWNQYSLKMQLGEQIKEKKKAIARAHSVAQLDELKSRKRVLRRLGFINDAEVVQMKARVACEISSTEGHELLLAELLFNRFFNELSPEICACILSCFIFDEKIETQALKEELAKPFREIQAQARIIAKVSAESKLDVNEDEYVQSLKWQLMETVLAWAQGRPFSEICKMTNVYEGSLIRLFRRLEELLRQMAEAARVMGSEELKDKFELSLSKIRRDIVSFNSLYL
With B2, the binding entry in test [3] is “binds”.
